From PMC12136788
This is one part of the list.

T1: UNK ZnF1-3 (human, UniProt Q9C0B0 31-174)
T1 sequence: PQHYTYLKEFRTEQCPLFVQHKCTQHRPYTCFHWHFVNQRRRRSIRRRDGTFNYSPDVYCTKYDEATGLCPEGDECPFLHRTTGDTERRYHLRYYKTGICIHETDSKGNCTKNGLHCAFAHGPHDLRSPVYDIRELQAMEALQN

B1: 182598990_182599358_972_3pUTR_ENSMUSG00000058729_ENSMUST00000085803|mouse|control|control (ssRNA)
RNA: GGGAGUUCUACAGUCCGACGAUCGAUAAGGAAUUCCACUGGAAAGCCUCCUAACGUCUCCGUGUCAGAGCCAGAAACUUUACUUCUCCAAGGUGACUGCCCCAGUAAAGGAUCGCCAUCUGUAAUUGGUGACUGGAGAGGAGGCAACAGAGGAUUGAGCAUCA
B2: chr11:86991360:86991361:+_ENSMUSG00000018548_ENSMUST00000041282|mus_hu|motif|central (ssRNA)
RNA: GGGAGUUCUACAGUCCGACGAUCUUCUCGAAUGAUAUUUUUUGUAGGAUCAUUACAGGACUGGUGAACCAUCUCGGCACGAUAUUCAUAUUUAGAAGUUUCAGGCAAGCCAGCUGAGAGCUCCAGAAACACAGAUAAGUAGUACAACAGAGGAUUGAGCAUCA
B3: chrX:35777509:35777510:-_ENSMUSG00000016534_ENSMUST00000061755|mus_hu|FALSE|FALSE (ssRNA)
RNA: GGGAGUUCUACAGUCCGACGAUCCUUUCCUUGUGUCACAUUGAAAGGCUGAACCCUUAGAUCAAAGGUAUUUAUCUGAAAUGCUCCAGACACUGAAACAGUCUGCUCUUUGUUGCACAUAUAAGAACUUCCCAGGGGGGCAUCCAACAGAGGAUUGAGCAUCA
B4: 108390681_108390801_2218_CDS_ENSMUSG00000034557_ENSMUST00000106657|mouse|control|control (ssRNA)
RNA: GGGAGUUCUACAGUCCGACGAUCGUUGACUGCUGAGUUCUCCCCUAGCUUUGCUUUCCCAAGAACAUCAUUUUUGUUUUUACUAUUAUUUCCAUUGUUUGCAGGAAGGUCAUUUUGUAAAUGGUCUGAUAAUGGCUUUGGAAUCAACAGAGGAUUGAGCAUCA
B5: chr4:144460044:144460045:+_ENSG00000153147_ENST00000283131|hu_mus|hu_hu_hu_mus_False|1_68 (ssRNA)
RNA: GGGAGUUCUACAGUCCGACGAUCACGGUCCAUAGCCUGAAGAUCAACUUGCGGAUUCCAAUCUGAGUCAUACAAAAUGACUACAUCAGCAGUUGCAAGAUUGAUGCCCAGACCACCAGCACGUGUGCUUAGCAUAAAAACAAACAACAGAGGAUUGAGCAUCA
B6: chr1:80263381:80263382:-_ENSMUSG00000004364_ENSMUST00000163119|mus_mus|FALSE|FALSE (ssRNA)
RNA: GGGAGUUCUACAGUCCGACGAUCAAUUUUGCAUCUCUUUUGCCAUUUUUGCUACCCAACUUACACAAUGCGCAAAGUGCUAAUAAGCAACACUACAGAAACACAUUUACAUCAACACUGAAGACCUGGGGAAAUGAAAUCCAACAACAGAGGAUUGAGCAUCA
B7: 17831384_17831504_2669_CDS_ENSMUSG00000037369_ENSMUST00000044484|mouse|control|control (ssRNA)
RNA: GGGAGUUCUACAGUCCGACGAUCAUCUCCAUGGCUAGGACUGCAAACAGCAUCUGCCAUCACCUGAUGGACAUGAUUAGGAAGUCCCUCAACACUGGCAGUGCUGUUAGGUGUCUCUCCAGUUUGCCUGCUUGUUUCAGGCACCAACAGAGGAUUGAGCAUCA
B8: 181319571_181319691_2535_CDS_ENSMUSG00000000823_ENSMUST00000128553|mouse|control|control (ssRNA)
RNA: GGGAGUUCUACAGUCCGACGAUCGCUCCGGGACCCCCUGUCUCUGCCUCCUGGGGGCCAGUCAUCCCUGUUAGGGGGGAGCUUAGAUGCUGGCUCCUCGGAGGAUCGUUCCUUGGGUUUGCGGCCCCGCUUCUUUCCUCCUGACAACAGAGGAUUGAGCAUCA
B9: chr9:53392976:53392977:-_ENSMUSG00000032047_ENSMUST00000034547|mus_hu|FALSE|FALSE (ssRNA)
RNA: GGGAGUUCUACAGUCCGACGAUCUUUCAAUCCCACAUCUUUAAGAACCAUAGAUGCAGCAUAUACAGGAGCAAUUGGAAAAUCAAUAGGUUCUACAGCAGCGUCAGCAAAUGCUACUAUUCUUGCCAGUGGUGUAACAUUGAGCAACAGAGGAUUGAGCAUCA
B10: chr19:16212804:16212805:+_ENSG00000167460_ENST00000300933|hu_mus|hu_hu_hu_mus_False|28_88 (ssRNA)
RNA: GGGAGUUCUACAGUCCGACGAUCAACAAUUCUGGAGUGAAGGAAAGCAUCAAGGAUGAACAGCAUUAAAGCUCAGUCAGAAGGCACAUGGGCAACAAUGAUCACCCCCCAAGCAUUGCUUGGAAUGCUUAAAGACAAUCUGUUCAACAGAGGAUUGAGCAUCA
B11: chr13:55314840:55314841:+_ENSMUSG00000021488_ENSMUST00000099490|mus_mus|motif|central (ssRNA)
RNA: GGGAGUUCUACAGUCCGACGAUCAUCACUUUUUGCAGGGUCUUGAAAGGAUUCUGAUCCAUCAGCAGACCCACUUAAAUAUUCGGCAUUGAUCAUGGAGGCCAAAUCCUGUAGUCUCCGCAGUGGAAUGUAACAAGAUGGAGACAACAGAGGAUUGAGCAUCA
B12: 17602526_17605274_3153_CDS_ENSG00000125844_ENST00000246043|human|control|control (ssRNA)
RNA: GGGAGUUCUACAGUCCGACGAUCGAGCAGAGCCAGCAGGGCCUCCAUGGUCUGCGCCUCAAUCAGACAGAGCUGCUUCUCCGAUUCCUCCUUGGCCUGGGUCAGGGAGAGCAGCUUCUCCUUGCAGGCCUGCUCGGCCGUGGCCAACAGAGGAUUGAGCAUCA
B13: chr13:14279204:14279205:+_ENSMUSG00000039219_ENSMUST00000039538|mus_mus|FALSE|FALSE (ssRNA)
RNA: GGGAGUUCUACAGUCCGACGAUCAUCUGUAUGGACUUUGUUUUCUUCUAGCAAAGAUGGACUACUCUGUUCCUCUUUUGAAAUCAGUUCAUUUCUGCUGUGGGUUGAAUGUUCCACCUUUGAUUCGUCUUUGCCAAUGUUAUCCAACAGAGGAUUGAGCAUCA
B14: 146276283_146277518_615_3pUTR_ENSMUSG00000037110_ENSMUST00000109986|mouse|control|control (ssRNA)
RNA: GGGAGUUCUACAGUCCGACGAUCUUCCUCUGGGUAUAUUUUUGCAUCAACUAUACUAGGGCUAGGGUUGAUGAGUGUCUCCAGUGUGCAGGGACCCCUGGAUGACAAGACCGCUGGGAAACCAGGCACUAGGCAAGCGAAAAUCAACAGAGGAUUGAGCAUCA
B15: chr2:114699772:114699773:+_ENSG00000115091_ENST00000536059|hu_hu|motif|central (ssRNA)
RNA: GGGAGUUCUACAGUCCGACGAUCUGACCCAUCUGUAUCAUACUUGUUAAAUUCUUUUACUAAAUCUGGGCAGACAUAACGGUAGCGCUCCUUUACUGCCUUAGCAGUUUCCAAGGAUUGUUCUGGAGGGAUUCCUACUUCUCGCAACAGAGGAUUGAGCAUCA
B16: chr2:198351390:198351391:-_ENSG00000144381_ENST00000345042|hu_hu|hu_hu_hu_mus_False|38_58 (ssRNA)
RNA: GGGAGUUCUACAGUCCGACGAUCUCAUUCCCACCCUCCACAGAAAGGCUGCUUCUGAACUCUCAUGUGGUGACACAGCACUAAAAUCCUGAUGCUCACAGAAUAGUAGAGAUGCCUCAGUGAUUUAAGUUGAAAGCAGGACACCAACAGAGGAUUGAGCAUCA
B17: chr7:23547099:23547100:-_ENSG00000164548_ENST00000297071|hu_mus|FALSE|FALSE (ssRNA)
RNA: GGGAGUUCUACAGUCCGACGAUCUGGUCUGCCCAUGUAAAUGCCUGGUGUGGGUGUGUGCGCUCUCUUGGUGAUAGAAUAAUCCACACGGAUUCUUCUACCGUCCAGCUCCAUCCCAUUUGCUCUCUCCAUAGCCUCCUUAGACAACAGAGGAUUGAGCAUCA
B18: chr12:36845622:36845623:-_ENSMUSG00000020547_ENSMUST00000020856|mus_hu|motif|central (ssRNA)
RNA: GGGAGUUCUACAGUCCGACGAUCUGCCAUCCAUGCUUUGAAAAGCUUGACAGCAAAUGAGGCCGCAAUGCCUUCUUUGACGGAGCUGUCGGUGAAGAGACUGGUGAGGAUGGUGGCGGGCAGGGUGCCAUUGCCCAGCAGAAUCAACAGAGGAUUGAGCAUCA
B19: 119461059_119461179_1228_CDS_ENSG00000119401_ENST00000373983|human|control|control (ssRNA)
RNA: GGGAGUUCUACAGUCCGACGAUCUAGUACUUCACCUUGACUGGUCACGUAGAGACUGACUGGAAGAUUGAACAUUCCUGGAGUGCUGCCUUUGGCCCCCAUCUUCUUGAGAAAGAGGCACUGCUGGAUAUUGGAGGCUGCCUCCAACAGAGGAUUGAGCAUCA
B20: chr9:95013113:95013114:-_ENSG00000196305_ENST00000443024|hu_hu|hu_hu_hu_mus_False|48_58 (ssRNA)
RNA: GGGAGUUCUACAGUCCGACGAUCCUCAGUCAGAAAGGGCGUGUAAGGGGCCAUCAGUCUGCACAGAGAAAGCAGGACACUAAACAAGGUUUCUAGGGCCAUGACACAGUCUUCCACCCCACUCUCACCCUUUAACCUCCUCCUCAACAGAGGAUUGAGCAUCA
B21: chr14:65392728:65392729:+_ENSG00000258289_ENST00000359118|hu_mus|motif|central (ssRNA)
RNA: GGGAGUUCUACAGUCCGACGAUCAUACUCGUGUCUGGCUACUACAUGAUGACAGUUCUUACACAGAUGGUCAUAGGUAACGGUUUCUUCUCCAUCUUCCUCUUUCAGGGAUCUGUUUGUGAUCAGCAUAAAGUCCCGCUUACUCAACAGAGGAUUGAGCAUCA
B22: chr16:92112057:92112058:+_ENSMUSG00000039680_ENSMUST00000047429|mus_mus|motif|central (ssRNA)
RNA: GGGAGUUCUACAGUCCGACGAUCGCCGUCACACUCUUUUACUUCCUGGGUCAGAGGGUGUUUCACAAUAUUUGGUCGGACCACGUCAAUGUCUCGCGCCAAGUGUUCCAGUAUGUUCUCCACAGCACUUGUCGGAGCAUAAAACAACAGAGGAUUGAGCAUCA

The binders below were run against T1, UNK ZnF1-3 (assay: nsRBNS (natural sequence RNA bind-n-seq); RBNS binding buffer (assumed for nsRBNS): 25 mM Tris pH 7.5, 150 mM KCl, 3 mM MgCl2, 0.01% Triton X-100, 500 ug/ml BSA, 20 U/ml SUPERase-In, 4 C; UNK is unkempt and MSI1 is Musashi-1; names of the RNAs are library labels; protein concentration not given here; high values mean tight binding).

Point of comparison: B22, binding signal 0.691 enrichment R. Against it:
- B1 — higher, 0.782 enrichment R
- B2 — higher, 1.59 enrichment R
- B3 — higher, 0.855 enrichment R
- B4 — lower, 0.555 enrichment R
- B5 — higher, 0.939 enrichment R
- B6 — higher, 1.43 enrichment R
- B7 — lower, 0.418 enrichment R
- B8 — higher, 0.7 enrichment R
- B9 — higher, 1.41 enrichment R
- B10 — higher, 1.53 enrichment R
- B11 — higher, 0.744 enrichment R
- B12 — lower, 0.533 enrichment R
- B13 — lower, 0.18 enrichment R
- B14 — higher, 1.45 enrichment R
- B15 — higher, 0.794 enrichment R
- B16 — higher, 1.19 enrichment R
- B17 — lower, 0.663 enrichment R
- B18 — higher, 0.968 enrichment R
- B19 — higher, 0.975 enrichment R
- B20 — higher, 1.24 enrichment R
- B21 — higher, 0.732 enrichment R
